In paper PMC4316160 one finds binding data, which are given here for 4 molecules.

Sequences of proteins named here, by UniProt entry; tags and fusion partners are left off. A change or cut given only in a name is not applied to a line headed by its entry.
UniProt P62821: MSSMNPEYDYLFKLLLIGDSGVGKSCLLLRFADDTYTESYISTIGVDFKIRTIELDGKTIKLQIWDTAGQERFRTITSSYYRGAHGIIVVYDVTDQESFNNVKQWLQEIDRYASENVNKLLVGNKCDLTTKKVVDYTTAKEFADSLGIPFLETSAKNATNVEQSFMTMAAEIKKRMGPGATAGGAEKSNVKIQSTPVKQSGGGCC

One assay deals with FLAG-Rab1A(Q70L) (mouse) (UniProt P62821). Nature of the assay: co-IP; anti-FLAG agarose beads coupled with FLAG-Arl8b(Q75L) or FLAG-Rab1A(Q70L) incubated with COS-7 cell lysates containing T7-SKIP-RUN or T7-SKIP(Δ177–186)-RUN; immunoblotting; only the target purified.
For assay [1], the target named is endogenous Rab1A (mouse (endogenous in melan-a)) (UniProt P62821). The assay can be described thus: co-IP; endogenous proteins; Protein-A Sepharose beads with anti-Rab1A rabbit polyclonal antibody or control rabbit IgG, incubated with melan-a cell lysates overnight at 4°C; immunoblotting. Background: Immunoblotting shows a protein as a band on a membrane.

Results are given in words; binding and its absence hold for the method and conditions named. In cells and extracts the contact can be indirect. Some results given as binding are weak or reduced against the parent protein; the word gives no strength.

B1: T7-SKIP-RUN (domain or fragment, UniProt Q8IWE5 1-282)
chain: MEPGEVKDRILENISLSVKKLQSYFAACEDEIPAIRNHDKVLQRLCEHLDHALLYGLQDLSSGYWVLVVHFTRREAIKQIEVLQHVATNLGRSRAWLYLALNENSLESYLRLFQENLGLLHKYYVKNALVCSHDHLTLFLTLVSGLEFIRFELDLDAPYLDLAPYMPDYYKPQYLLDFEDRLPSSVHGSDSLSLNSFNSVTSTNLEWDDSAIAPSSEDYDFGDVFPAVPSVPSTDWEDGDLTDTVSGPRSTASDLTSSKASTRSPTQRQNPFNEEPAETVSS
With B1, the binding entry with FLAG-Rab1A(Q70L) (mouse) is on record as “binds”.

B2: T7-SKIP(Δ177–186)-RUN (domain or fragment, UniProt Q8IWE5)
chain: MEPGEVKDRILENISLSVKKLQSYFAACEDEIPAIRNHDKVLQRLCEHLDHALLYGLQDLSSGYWVLVVHFTRREAIKQIEVLQHVATNLGRSRAWLYLALNENSLESYLRLFQENLGLLHKYYVKNALVCSHDHLTLFLTLVSGLEFIRFELDLDAPYLDLAPYMPDYYKPQYLLHGSDSLSLNSFNSVTSTNLEWDDSAIAPSSEDYDFGDVFPAVPSVPSTDWEDGDLTDTVSGPRSTASDLTSSKASTRSPTQRQNPFNEEPAETVSS
For B2, the binding entry with FLAG-Rab1A(Q70L) (mouse) is listed as “no binding”.

B3: endogenous SKIP (protein, UniProt Q80TQ5 1-1018)
chain: MEPREVKDRILENISLSVKKLQSYFAACEDETPAIRNHDKVLQRLCEHLDHALLYGLQDLSSGYWVLVVHFTRREAIRQIEVLQHVATNLGRSRAWLYLALNENSLESYLRLFQENLGLLQKYYVRNALVCSHDHLTLFLTLVSGLEFIRFDLDLDAPYLDLAPYMPDYYKPQYLLDFEDRLPSSVHGSDSLSLNSFNSVTSTNLEWDDSAIAPSSEDGDLTDTISGPRSTASDLTSSKTSTKSPTQRHNPFNEEQAETASSDTTPVHTTSQEKEEAQAPDQPDACTELEVIRVTKKKKIGKKKKTKLDEDASPLHPTSSQQKCGQQGEGDGLVGTPGLARDPSDTVLASPQEQGEGLSSTAGSSELSELSQMGLLIPEMKDTSMECLGQPLSKVIDKLHGQLDPSTWCSHADPPEQSFRAGSPGEAPEKPPFCDFSEGLPAPMDFYRFTVESPSTVAPGGGHHDPPGPSQPLHVPGSPAAALQEEEEGGRGEGQTSQPVEDRQGEEIQEPEPQEPDSQLPLVSQEPLVSQEPVPEPVSQPEPGTHEALCKLKRDQPSPCLSSAEDSGVEEGQGSPSEMTHPSEFRVDNNHLLLLMIHVFRENEEQLFKMIRMSTGHMEGNLQLLYVLLTDCYVYLLRKGATEKPYLVEEAVSYNELDYVSVGLDQQTVKLVCTNRRKQFLLDTADVALAELFLASLKSAMIKGCREPPYPSILTDATMEKLALAKFVAQESKCEASAVTVHFYGLVHWEDPMEEALGPVPCQCSPAEGTITKEGMLHYKASTSYLGKEHWKACFVVLSNGILYQYPDRTDVIPLLSVNMGGEQCGGCRRSNTTDRPHAFQVILADRPCLELSADSEAEMADWMQHLCQAVSKGVIPQGIAPSPCIPCCLVITEDRLFTCHEDCQTSFFRSLGTARLADITAISTELGKEYCVLEFSQDSPQLLQPWVIYLSCTSELDRFLTALSSGWKAIYQVDLPHKAIHEASIKQKFEDALSLIHSAWQRSDSLCRGRASRDPWC
As for B3, the binding result in assay [1] is recorded as “binds”.

B4: endogenous Arl8b (protein, UniProt Q9CQW2 1-186)
chain: MLALISRLLDWFRSLFWKEEMELTLVGLQYSGKTTFVNVIASGQFSEDMIPTVGFNMRKVTKGNVTIKIWDIGGQPRFRSMWERYCRGVNAIVYMIDAADREKIEASRNELHNLLDKPQLQGIPVLVLGNKRDLPNALDEKQLIEKMNLSAIQDREICCYSISCKEKDNIDITLQWLIQHSKSRRS
In the case of B4, the binding entry in assay [1] is reported as “no binding”.
